# Test results: the supplement of paper PMC11417369
# The other results are listed elsewhere or left out.
# Test system: PfAP2-HC AP2 domain (GST-tagged)
# Test: gcPBM binding intensity (ln(normalized median fluorescence intensity)); higher = stronger DNA binding
# Summary of the method: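 Using an Agilent 4 × 180k array, primer-extended double-stranded 36-bp intergenic genomic probes and negative controls were exposed for 1 h to GST-fused P. falciparum DNA-binding domains expressed in E. coli. Binding was carried out in 1× PBS with 1% milk, 0.2 mg/ml BSA, 0.5% salmon testes DNA and 0.03% Triton X-100, and protein was detected with Alexa488 anti-GST antibody and a 488 nm scan. Binding intensity is the highest Masliner-normalised natural-log median intensity across replicate spots of either probe orientation.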
row,Sequence,gcPBM binding intensity (ln)
1,TATATATATTATAGATGTACTTTCATATATATGTTT [XGTACX_site8189],9.79
2,TAAATATAATCTAAATGTACATGACATAATTTTTTT [XGTACX_site2856],9.56
3,TAAAATATTTTTTGTAGTACCTTAATATTTTTGAAG [XGTACX_site3048],9.21
4,GTGTAATATGAAATGTGTACACACGCACACACAAAA [XGTACX_site6180],10.7
5,TATTTATTTATGTACGCACACAGTTGATATTAATTC [CACACA_site2754],9.94
6,ATGTATATTTTTAAAAGTACAGAATTTTCATATGAA [XGTACX_site5754],9.55
7,ATATACAATACAAAAACACACACAAAAAAAGAAAAG [CACACA_site8668],10.4
8,ATAGTATCTGGTAGCTGTACGAGTCGTAGAGTCTAA [XGTACX_site2539],9.49
9,AGATATATATATAGGTGTACTGGAATGAAATTGTTT [XGTACX_site8200],9.89
10,ATGATAATTATTAAGGGTACATAAAAATATATCTAT [XGTACX_site8969],9.62
11,TATAATTATTTTTTCACACATATGTATTTATATATA [CACACA_site4205],9.86
12,ATTATTTAACATGTGGACACAAAAATTTAAGGGTTC [CACACA_negctrl_site1269],9.69
13,TACTAAGAAAAGAACTGTACATAGAATATACCCAAG [XGTACX_site4757],9.64
14,AATATCAAAAAAAAAAAAAAAAAAAAAAAAAAAAAA [CACACA_negctrl_site288],8.88
15,AATATATTAAATATTACACACATACATTTAGTGGAA [CACACA_site8609],9.78
16,TAGTATTATTTTTTTTGTACATATAAATGTAAAATA [XGTACX_site5282],9.39
17,AAAACATAAATACATACACACATAATATATATTAAG [CACACA_site4239],10.3
18,TTTTTTTAAAATATGAGTACATAATATTGTAAAAAT [XGTACX_site6536],9.33
19,CTTGGTAGTTTTTTCTTATAATCTAATTATTAATAA [CACACA_negctrl_site153],9.56
20,ATATATTAATATGTGTGTACTTAACCATTCATATGT [XGTACX_site7395],9.96
21,TTAATATATAATAAATTTTTTTTTTTTTTTTTTTTT [CACACA_negctrl_site892],9.35
22,TTAATATGAAAACTCTGTACCCAACCTTCTTATGGA [XGTACX_site2126],9.7

row,Sequence,gcPBM binding intensity (ln)
1,TATATAAATATATAATGTACGTTTTAAAAATAATAT [XGTACX_site3881],9.59
2,ATATAATAAATGTAGGTGCATAAAAATATTTTGTTA [GTGCAC_site9780],9.85
3,TTAACCACTAAAAGTACACACATATATACCTATATA [CACACA_site6026],9.86
4,TTTTAATAATATGGATGTACATAAAAATAAATAAAT [XGTACX_site7937],9.77
5,TACTAAATGATCATATGTACACATGTTTACTTTTTA [XGTACX_site1253],9.81
6,AATATATATATATATATATATATTTCAATATATAAA [XGTACX_negctrl_site187],9.59
7,ATACATATACACATTTGTACATATTCCTTTTTATCG [XGTACX_site1731],9.77
8,TTATTTAAAATGAAAAGTACATATTACTTTCTCACA [XGTACX_site5043],9.47
9,TCTTGTTTTAATTTTTATATTATTATTTAGATATAT [CACACA_negctrl_site921],9.74
10,AAAAAAAAAAAAAGTGCACACTTTTAATATAAATAT [CACACA_site3314],9.68
11,TTTTTATTTTTTAGTAGTACACACTTTTTGAACCTT [XGTACX_site1091],9.74
12,TTTTTTTTTTTCCTTACACACATATTTCATTTTATA [CACACA_site747],9.87
13,TTTTATATATATTATACACACAAGGAAAAAAAAAAA [CACACA_site3677],9.74
14,TATAAAAGGAAACACACACACATATATATATATATA [CACACA_site939],10.5
15,TGGATATATGTAAAAATTGCAAGAAAGATAAAAGGA [CACACA_negctrl_site64],9.77
16,ATTATGATATATATATGTACATATATATAATATAAT [XGTACX_site259],9.67
17,TCTATGAATTAATATGCATGTAACGTATTTATACTT [TGCATGCA_site669],9.63
18,CAAAAAATATATTTTTGTACTTATGTTTTTATTTTG [XGTACX_site5230],9.74
19,TAGTATAATATGAACACACACACACCCACAAAAAAA [CACACA_site2009],10.5
20,TTATAATATAAAAAATGTACATTAAAAAAAAAGATT [XGTACX_site8950],9.74
21,AAGTATCAAAAATAAAGTACATATTTTGTAGGCAGG [XGTACX_site1463],9.8
22,AAAAGATAAAATTATGCACACATACGAATAATTTTA [CACACA_site8497],9.87
